IC50 is the fitted dose that halves viability relative to control wells, and lower means more sensitive; a limit (>, <) means that the fit lies beyond the doses tested. AUC sums up the same curve from the lowest dose to the 256-fold higher top dose; it is 1 without any effect and falls as sensitivity rises. For some assays here: An inferred top dose comes from the curve model; the source does not state it. For some assays here: Where an entry number is given, a second screen of the drug exists; the two often differ.
Legend:
Experiment in all cases: Viability of human cancer cell lines after 72 h of drug (GDSC screen)
[1] = compound: Nc1ccn([C@@H]2O[C@H](CO)[C@@H](O)C2(F)F)c(=O)n1 [Gemcitabine]; settings: top dose 1.024 µM
Procedure: (§1)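 Human cancer cell lines in 384-well plates, medium with 10% serum, drug for 72 h over a 256-fold dose range (nine 2-fold or five 4-fold steps up to the top dose). Adherent lines were fixed and stained with the nucleic acid dye Syto60, suspension lines read with resazurin; signal relative to control wells, capped at 0 and 100%. One two-parameter sigmoid per drug and line, fitted in a mixed model over all curves with the slope shared within a line.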

[2] = compound: O=S(=O)(c1ccccc1)N(CC(F)(F)F)c1ccc(C(O)(C(F)(F)F)C(F)(F)F)cc1 [T0901317]; settings: top dose 10.24 µM; top dose inferred
Procedure: as §1

[3] = compound: CC(C)c1ccccc1Cc1cc(C(=O)Nc2ccc(S(=O)(=O)c3ccccc3C(C)(C)C)cc2)c(O)c(O)c1O [TW-37]; settings: top dose 5 µM
Procedure: as §1

[4] = compound: S=C(NCc1ccc2c(c1)OCO2)N1CCN(c2ncnc3c2oc2ccccc23)CC1 [MP470]; settings: top dose 20 µM; top dose inferred
Procedure: as §1

[5] = compound: CCNC(=O)c1noc(-c2cc(C(C)C)c(O)cc2O)c1-c1ccc(CN2CCOCC2)cc1 [AUY922]; settings: top dose 0.256 µM; top dose inferred
Procedure: as §1

[6] = compound: Cc1ccc(Nc2cc(-c3cccc(N4C(=O)c5ccccc5C4=O)c3)ncn2)cc1NS(C)(=O)=O [KIN001-270]; settings: top dose 20 µM; top dose inferred
Procedure: as §1

[7] = compound: NC(=O)c1cccc(-c2cc(Nc3ccc(OC(F)(F)F)cc3)ncn2)c1 [GNF-2]; settings: top dose 1.28 µM; top dose inferred
Procedure: as §1

[8] = compound: C/C(O)=C(\C#N)C(=O)Nc1cc(Br)ccc1Br [LFM-A13]; settings: top dose 16 µM; top dose inferred
Procedure: as §1

[9] = compound: CC(O)(CS(=O)(=O)c1ccc(F)cc1)C(=O)Nc1ccc(C#N)c(C(F)(F)F)c1 [Bicalutamide]; settings: top dose inferred
Procedure: as §1

[10] = compound: Cc1cn(-c2cc(NC(=O)c3ccc(C)c(Nc4nccc(-c5cccnc5)n4)c3)cc(C(F)(F)F)c2)cn1 [Nilotinib]; settings: top dose 2 µM
Procedure: as §1

[11] = top dose 1.024 µM, screen: GDSC drug entry 150
[12] = top dose 10 µM, screen: GDSC drug entry 1502

Cell Line	AUC [1]	IC50 [1] [nM]	AUC [2]	IC50 [2] [nM]	AUC [3]	IC50 [3] [nM]	AUC [4]	IC50 [4] [nM]	AUC [5]	IC50 [5] [nM]	AUC [6]	IC50 [6] [nM]	AUC [7]	IC50 [7] [nM]	AUC [8]	IC50 [8] [nM]	AUC [9, 11]	IC50 [9, 11] [nM]	AUC [9, 12]	IC50 [9, 12] [nM]	AUC [10]	IC50 [10] [nM]
EB-3 (Burkitt lymphoma, suspension)	0.949	> 1020	0.956	> 10200	0.921	> 5000	0.955	> 20000	0.752	97.8	0.894	> 20000	0.98	> 1280	0.976	> 16000	0.983	> 1020	0.972	> 10000	0.984	> 2000
P32-ISH (Burkitt lymphoma, suspension)	0.098	5.54	0.947	> 10200	0.515	340	0.95	> 20000	0.55	21.2	0.856	10200	0.992	> 1280	0.958	> 16000	0.993	> 1020	0.994	> 10000	0.974	> 2000
TUR (B-cell lymphoma, suspension)	0.401	35	0.904	> 10200	0.513	338	0.814	9900	0.62	33.3	0.954	> 20000	0.988	> 1280	0.988	> 16000	0.988	> 1020	0.972	> 10000	0.972	> 2000
NOMO-1 (acute myeloid leukaemia, suspension)	0.274	13.2	0.903	> 10200	0.554	448	0.922	> 20000	0.653	45.1	0.96	> 20000	0.98	> 1280	0.952	> 16000	0.972	> 1020	0.953	> 10000	0.898	> 2000
NCI-H1155 (large cell lung carcinoma, suspension)	0.67	173	0.988	> 10200	0.469	261	0.921	> 20000	0.92	> 256	0.977	> 20000	0.993	> 1280	0.993	> 16000	0.991	> 1020	0.993	> 10000	0.969	> 2000
SNB75 (glioma, adherent)	0.37	23.7	0.979	> 10200	0.316	74.7	0.967	> 20000	0.59	31.6	0.968	> 20000	0.944	> 1280	0.949	> 16000	0.978	> 1020	0.975	> 10000	0.965	> 2000
SUP-HD1 (Hodgkin lymphoma, suspension)	0.421	39.4	0.932	> 10200	0.497	308	0.955	> 20000	0.695	54.9	0.903	> 20000	0.987	> 1280	0.98	> 16000	0.986	> 1020	0.986	> 10000	0.979	> 2000
OCI-AML3 (acute myeloid leukaemia, suspension)	0.165	7.53	0.949	> 10200	0.8	2040	0.858	12800	0.743	70.2	0.974	> 20000	0.991	> 1280	0.991	> 16000	0.991	> 1020	0.99	> 10000	0.987	> 2000
EW-1 (Ewing sarcoma, semi-adherent)	0.099	< 4	0.976	> 10200	0.467	255	0.875	16900	0.476	13.9	0.952	> 20000	0.985	> 1280	0.947	> 16000	0.985	> 1020	0.987	> 10000	0.989	> 2000
A101D (melanoma, adherent)	0.23	8.57	0.979	> 10200	0.367	123	0.979	> 20000	0.546	22	0.977	> 20000	0.968	> 1280	0.958	> 16000	0.981	> 1020	0.957	> 10000	0.897	> 2000
K5 (thyroid, adherent)	0.732	284	0.988	> 10200	0.749	1560	0.985	> 20000	0.456	12.2	0.912	> 20000	0.986	> 1280	0.975	> 16000	0.983	> 1020	0.941	> 10000	0.986	> 2000
LOUCY (T-cell lymphoblastic leukaemia, suspension)	0.302	20	0.978	> 10200	0.482	282	0.971	> 20000	0.435	11	0.936	> 20000	0.992	> 1280	0.972	> 16000	0.992	> 1020	0.988	> 10000	0.989	> 2000
KARPAS-299 (anaplastic large cell lymphoma, suspension)	0.501	64.5	0.982	> 10200	0.624	643	0.976	> 20000	0.889	207	0.937	> 20000	0.987	> 1280	0.99	> 16000	0.992	> 1020	0.981	> 10000	0.979	> 2000
LU-65 (large cell lung carcinoma, suspension)	0.76	421	0.98	> 10200	0.943	> 5000	0.946	> 20000	0.74	89.4	0.975	> 20000	0.987	> 1280	0.982	> 16000	0.987	> 1020	0.981	> 10000	0.987	> 2000
IST-SL1 (small cell lung carcinoma, semi-adherent)	0.587	112	0.958	> 10200	0.569	484	0.967	> 20000	0.932	> 256	0.961	> 20000	0.983	> 1280	0.965	> 16000	0.983	> 1020	0.982	> 10000	0.986	> 2000
TE-8 (oesophagus, adherent)	0.192	7.09	0.976	> 10200	0.417	182	0.966	> 20000	0.321	4.86	0.966	> 20000	0.985	> 1280	0.963	> 16000	0.983	> 1020	0.98	> 10000	0.973	> 2000
EW-16 (Ewing sarcoma, adherent)	0.052	< 4	0.972	> 10200	0.442	215	0.964	> 20000	0.367	6.74	0.982	> 20000	0.978	> 1280	0.905	> 16000	0.984	> 1020	0.982	> 10000	0.981	> 2000
LU-139 (small cell lung carcinoma, suspension)	0.468	51.1	0.92	> 10200	0.73	1720	0.874	> 20000	0.932	> 256	0.923	> 20000	0.975	> 1280	0.98	> 16000	0.979	> 1020	0.969	> 10000	0.94	> 2000
TGBC1TKB (biliary tract, adherent)	0.864	890	0.977	> 10200	0.696	1100	0.97	> 20000	0.808	132	0.972	> 20000	0.938	> 1280	0.981	> 16000	0.987	> 1020	0.987	> 10000	0.982	> 2000
SUP-M2 (anaplastic large cell lymphoma, suspension)	0.455	49.6	0.815	4030	0.43	211	0.846	9740	0.832	113	0.991	> 20000	0.994	> 1280	0.993	> 16000	0.994	> 1020	0.993	> 10000	0.994	> 2000
EB2 (Burkitt lymphoma, suspension)	0.08	< 4	0.899	> 10200	0.614	624	0.928	> 20000	0.602	29.5	0.955	> 20000	0.99	> 1280	0.987	> 16000	0.985	> 1020	0.989	> 10000	0.99	> 2000
NCI-H2135 (non-small cell lung carcinoma, adherent)	0.469	52.8	0.991	> 10200	0.972	> 5000	0.944	> 20000	0.577	25.7	0.927	> 20000	0.991	> 1280	0.98	> 16000	0.991	> 1020	0.985	> 10000	0.991	> 2000
OCI-LY-19 (B-cell lymphoma, suspension)	0.091	< 4	0.978	> 10200	0.411	182	0.568	1890	0.465	12.9	0.9	> 20000	0.988	> 1280	0.932	> 16000	0.987	> 1020	0.982	> 10000	0.981	> 2000
